Over roughly 33,000 sequences, “E-score (-0.5 to 0.5)” has its median near -0.056; the highest 2% begin near 0.38. The list shows a part of the results.
The sequences below were run against Stb4 (UniProt P50104) (assay: PBM E-score (8-mer binding enrichment) (E-score (-0.5 to 0.5)); higher = stronger / more preferred TF binding; most listed sequences are background and not binding sites). Conditions: protein concentration: 200 nM; construct: GST-DNA-binding domain.
In short: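 Full-length yeast transcription factors or their DNA-binding domains, GST-tagged and expressed with PURExpress, were applied at about 100-200 nM to universal all-10-mer Agilent arrays. These arrays had been made double-stranded by primer extension on fresh or once-stripped slides. Detection used fluorescent anti-GST, normalisation used masliner, and E-scores for ungapped eight-base words pooled with reverse complements came from the Universal PBM Analysis Suite.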

Row | Sequence | PBM E-score
1 | AAGTCTAG | 0.00294
2 | ACCATGAC | -0.0558
3 | ATTTGACC | -0.0772
4 | ACACAGTA | -0.256
5 | AAGACAAC | 0.0208
6 | GCAAGGAC | 0.0354
7 | GCACCTGA | -0.329
8 | GCGGAAAA | 0.332
9 | CTGATATC | 0.136
10 | AATCTAAA | 0.0391
11 | AGATGAGA | -0.103
12 | ACCCTGAT | -0.0752
13 | ACAGAACT | -0.0427
14 | AACGATGG | -0.0969
15 | CTTCGTGA | -0.177
16 | ATGGGTGC | -0.114
17 | AGGAGTCC | -0.07
18 | AAACACTC | -0.0121
19 | AGGATCTC | -0.0651
20 | AGCACACA | -0.273
21 | CTGCACAA | -0.153
22 | CAACCGAC | 0.215
23 | GACTGTTA | -0.157
24 | TCTGCACA | -0.123
25 | AAGCAGGC | -0.164

Row | Sequence | PBM E-score
26 | CTGTTCCA | -0.252
27 | TCGGCACA | 0.441
28 | GACGGCCC | 0.0144
29 | ACCCGGCT | 0.36
30 | ATCATCCG | 0.414
31 | CCGAGTTA | 0.34
32 | CATCCTTA | -0.169
33 | AGAAGGGG | -0.169
34 | CCGCCTCA | 0.0771
35 | CCTGCGCG | 0.0544
36 | CTCTTGGA | -0.105
37 | CCAGGGAG | -0.353
38 | ATTGACTA | -0.123
39 | GGCCGTCA | 0.00318
40 | GAAATCTC | -0.00294
41 | ACGCTCTG | -0.323
42 | CCACCATA | 0.0403
43 | ATTTGATG | -0.0886
44 | GTCTCCCA | -0.148
45 | ACGTTAAC | -0.137
46 | CGAAGATA | 0.282
47 | ACATTCAC | -0.0148
48 | AATCATGA | -0.211
49 | CCTGCTCC | 0.0776
50 | AGTTTGGC | -0.0624

Row | Sequence | PBM E-score
51 | TCAAGACA | 0.0169
52 | CCAAGTCA | -0.11
53 | AATAAAAG | -0.11
54 | AAAAACTT | -0.0512
55 | ACCAGATG | -0.152
56 | CCAGACCC | 0.0209
57 | CAGATTCG | 0.139
58 | CGGGCCCC | 0.119
59 | AGGCGCCA | -0.153
60 | GGTGACAC | 0.0509
61 | CCGAGGGA | 0.386
62 | GGGACTCA | -0.149
63 | TCGCACGA | -0.207
64 | CACACGGG | 0.145
65 | AAGCAAAA | -0.181
66 | GCTTCATA | -0.0562
67 | CTGTGGGA | -0.145
68 | CAAATACA | 0.00604
69 | GCGATAGC | -0.131
70 | TAGAGAAA | -0.0274
71 | CTAATTTC | 0.0943
72 | CAAACAGG | -0.09
73 | CAGCGGGC | 0.0491
74 | CCGCCCCC | 0.154
75 | AATACAAG | -0.012

Row | Sequence | PBM E-score
76 | CAGCTCCA | -0.265
77 | CTCGAAAC | -0.128
78 | AATGGAGC | -0.222
79 | GGTCCGAC | 0.292
80 | GGGTTAAA | 0.146
81 | CTTCTGTA | -0.112
82 | CAGTTTCG | 0.0607
83 | GCGACCGA | 0.126
84 | AACTTCCC | 0.0609
85 | ATCGATCC | 0.213
86 | CATGCGCG | 0.0492
87 | ATGCTTGG | -0.187
88 | CTACGAGA | -0.138
89 | ATTTTTCA | 0.0861
90 | AGAAGAGA | -0.162
91 | AAGAAGTC | -0.0434
92 | CCTCCCCG | 0.231
93 | TAACCGCA | 0.154
94 | CGATCAAA | 0.0532
95 | AGGAATTA | 0.0103
96 | ATTTCCTC | 0.0855
97 | CATAGCGG | -0.0151
98 | AACTCGTA | -0.0926
99 | CGCTCTGC | -0.0501
100 | AAGTTTGC | -0.0647

Row | Sequence | PBM E-score
101 | CGAGAAAG | 0.107
102 | CGAGCAGA | 0.161
103 | GCCGCGGC | 0.354
104 | AACGCACA | -0.119
105 | ATCATGGA | -0.246
106 | TAGGAACA | -0.118
107 | GTTCCCCA | -0.244
108 | AACGCGTT | -0.0196
109 | GATGTGAA | -0.0208
110 | AAACTTCC | 0.269
111 | GATATACC | 0.155
112 | AGATATCA | -0.138
113 | TGGTATAA | -0.0678
114 | GAACTTCC | 0.22
115 | CATAGCGC | 0.00119
116 | CATAACGC | -0.121
117 | TAAGCTCA | -0.203
118 | AAGCTCAG | -0.346
119 | AAACGAAA | 0.0721
120 | CGTTTGAG | -0.109
121 | CCACACGA | -0.223
122 | GAAGCAAC | -0.0339
123 | CGCGGTGA | -0.146
124 | ACCCTTAT | -0.222
125 | CCCCCGGA | 0.176

Row | Sequence | PBM E-score
126 | AATCGCGC | -0.0862
127 | AAAATTCG | 0.0918
128 | CCATTCCA | -0.00328
129 | AGGAGGGC | -0.187
130 | CTGGGAGC | -0.132
131 | CGGAGACA | 0.209
132 | CCATACCC | 0.223
133 | GGCACCGA | 0.18
134 | CTGTGGGC | -0.0997
135 | AAAACATC | -0.036
136 | CAACAGAG | -0.00805
137 | AACGCGTC | 0.0116
138 | GCGAAATA | 0.0947
139 | ACCGCATC | 0.239
140 | CGCGATTC | 0.143
141 | AGATCACC | -0.0177
142 | AGTACAGA | -0.122
143 | TACCGGGA | 0.307
144 | AACATTAA | -0.0786
145 | ACACTCGT | -0.315
146 | CTCATCTA | -0.116
147 | CGAATCAG | -0.0679
148 | AGCTCACC | -0.0311
149 | AGTCCGAG | 0.371
150 | ACAACCAT | 0.0286

Row | Sequence | PBM E-score
151 | AGCACTGG | -0.166
152 | TACTACTA | 0.207
153 | CCACTGAG | -0.217
154 | GATCCAAA | -0.0151
155 | AATGTCCA | -0.253
156 | CAAATTCA | -0.118
157 | ACACCACT | 0.0986
158 | CCACCCGC | 0.194
159 | AACAAGCT | -0.133
160 | GTTTGGGA | -0.215
161 | GTAATTGA | 0.00856
162 | GACCGGGA | 0.301
163 | CTAGCTAC | -0.189
164 | ATGGCAAT | -0.0777
165 | GATTTACC | 0.261
166 | AAGAGGAG | 0.0222
167 | ATACCTAG | -0.119
168 | GAGTTATC | 0.196
169 | CACCTTTA | -0.00588
170 | AGTGTGTA | -0.127
171 | CATCCCAC | 0.0386
172 | GATTCAAA | -0.0702

— the supplement of paper PMC3334620
